# From the supplement of paper PMC12645437, “Orthogonal IMiD-Degron Pairs Induce Selective Protein Degradation in Cells” (ACS Chemical Biology, 2025)
# The other results are listed elsewhere or left out.
# B1: Q9UKT9 (peptide)
# chain: FVCEICGAAFTQKGNLLRHIKL
# B2: Q9UKT9 (peptide)
# chain: FCCDICGAPFTQKGNLLRHIKL
# B3: Q9UKT9 (peptide)
# chain: FRCEICGRGFTQKGNLLRHIKL
# B4: Q9UKT9 (peptide)
# chain: FNCEQCGAVFTQKGNLLRHIKL
# B5: Q9UKT9 (peptide)
# chain: FGCNICGAAFTQKGNLLRHIKL
# B6: Q9UKT9 (peptide)
# chain: FVCDICGAKFTQKGNLLRHIKL
# B7: Q9UKT9 (peptide)
# chain: FICEVCGADFTQKGNLLRHIKL
# B8: Q9UKT9 (peptide)
# chain: FVCNQCGALFTQKGNLLRHIKL
# B9: Q9UKT9 (peptide)
# chain: FQCEQCGAIFTQKGNLLRHIKL
# B10: Q9UKT9 (peptide)
# chain: FKCDQCGAYFTQKGNLLRHIKL
# B11: Q9UKT9 (peptide)
# chain: FLCEQCGAVFTQKGNLLRHIKL
# B12: Q9UKT9 (peptide)
# chain: FQCEICGHYFTQKGNLLRHIKL
# B13: Q9UKT9 (peptide)
# chain: FRCPICGRVFTQKGNLLRHIKL
# B14: Q9UKT9 (peptide)
# chain: FWCNQCGALFTQKGNLLRHIKL
# B15: Q9UKT9 (peptide)
# chain: FTCEQCGACFTQKGNLLRHIKL
# B16: Q9UKT9 (peptide)
# chain: LLCNQCGFMCTQKGNLLRHIKL
# B17: Q9UKT9 (peptide)
# chain: FGCNQCGRWFTQKGNLLRHIKL
# B18: Q9UKT9 (peptide)
# chain: FQCNQCGRAFTQKGNLLRHIKL
# B19: Q9UKT9 (peptide)
# chain: LDCPICGFKCTQKGNLLRHIKL
# B20: Q9UKT9 (peptide)
# chain: LTCNQCGFLCTQKGNLLRHIKL
# B21: Q9UKT9 (peptide)
# chain: FYCEICGRRFTQKGNLLRHIKL
# B22: Q9UKT9 (peptide)
# chain: FRCSVCGHRFTQKGNLLRHIKL
# B23: Q9UKT9 (peptide)
# chain: FNCDICGAEFTQKGNLLRHIKL
# B24: Q9UKT9 (peptide)
# chain: LECNQCGFWCTQKGNLLRHIKL
# B25: Q9UKT9 (peptide)
# chain: FFCDQCGAMFTQKGNLLRHIKL
# B26: Q9UKT9 (peptide)
# chain: FHCNQCGHDFTQKGNLLRHIKL
# B27: Q9UKT9 (peptide)
# chain: FMCPICGAYFTQKGNLLRHIKL
# B28: Q9UKT9 (peptide)
# chain: FGCNICGAPFTQKGNLLRHIKL
# B29: Q9UKT9 (peptide)
# chain: FSCEQCGANFTQKGNLLRHIKL
# B30: Q9UKT9 (peptide)
# chain: FYCNVCGALFTQKGNLLRHIKL
# B31: Q9UKT9 (peptide)
# chain: FGCEICGAAFTQKGNLLRHIKL
# B32: Q9UKT9 (peptide)
# chain: FDCDVCGANFTQKGNLLRHIKL
# B33: Q9UKT9 (peptide)
# chain: FSCPVCGAIFTQKGNLLRHIKL
# B34: Q9UKT9 (peptide)
# chain: FFCPICGRQFTQKGNLLRHIKL
# B35: Q9UKT9 (peptide)
# chain: FECNQCGASFTQKGNLLRHIKL
# B36: Q9UKT9 (peptide)
# chain: FRCNQCGADFTQKGNLLRHIKL
# B37: Q9UKT9 (peptide)
# chain: FCCPICGRWFTQKGNLLRHIKL
# B38: Q9UKT9 (peptide)
# chain: LKCPICGFACTQKGNLLRHIKL
# B39: Q9UKT9 (peptide)
# chain: FNCEVCGAMFTQKGNLLRHIKL
# B40: Q9UKT9 (peptide)
# chain: FFCEQCGAKFTQKGNLLRHIKL
# B41: Q9UKT9 (peptide)
# chain: FHCEICGRHFTQKGNLLRHIKL
# B42: Q9UKT9 (peptide)
# chain: LGCPICGFTCTQKGNLLRHIKL
# B43: Q9UKT9 (peptide)
# chain: LCCEICGFPCTQKGNLLRHIKL
# B44: Q9UKT9 (peptide)
# chain: LTCNQCGFTCTQKGNLLRHIKL
# B45: Q9UKT9 (peptide)
# chain: FHCNQCGAVFTQKGNLLRHIKL
# B46: Q9UKT9 (peptide)
# chain: FQCNQCGRRFTQKGNLLRHIKL
# B47: Q9UKT9 (peptide)
# chain: FICPICGRDFTQKGNLLRHIKL
# B48: Q9UKT9 (peptide)
# chain: FLCDQCGAIFTQKGNLLRHIKL
# B49: Q9UKT9 (peptide)
# chain: FMCDVCGAFFTQKGNLLRHIKL
# B50: Q9UKT9 (peptide)
# chain: FYCNQCGATFTQKGNLLRHIKL
# Molecular target: no compound (DMSO)
# Test: log2 fold change of degron read counts, EGFP-low vs EGFP+ sorted cells; higher = lower degron-EGFP level without compound (poor expression or instability)
# Conditions: compound: DMSO control; 18 h
# 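Note: jurkat cells carrying a lentiviral library of mutant zinc finger degrons fused to EGFP plus mCherry, mCherry+ cells FACS sorted, degron abundance counted by next-generation sequencing.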
row,Sequence,log2 fold change of degron read counts
1,B1,-1.53
2,B2,-1.41
3,B3,-1.56
4,B4,-1.4
5,B5,-0.55
6,B6,-2.68
7,B7,-1.8
8,B8,-0.339
9,B9,-1.88
10,B10,-0.874
11,B11,-2.38
12,B12,-1.42
13,B13,1.3
14,B14,1.24
15,B15,-0.853
16,B16,0.746
17,B17,1.32
18,B18,-0.192
19,B19,0.315
20,B20,0.551
21,B21,-2.91
22,B22,-0.0503
23,B23,-3.31
24,B24,0.97
25,B25,-1.12

row,Sequence,log2 fold change of degron read counts
1,B26,-0.282
2,B27,0.986
3,B28,0.945
4,B29,-1.54
5,B30,0.495
6,B31,-0.921
7,B32,-1.44
8,B33,0.463
9,B34,-1.15
10,B35,-1.59
11,B36,-1.3
12,B37,1.33
13,B38,0.575
14,B39,-1.51
15,B40,-1.44
16,B41,-1.44
17,B42,0.145
18,B43,0.485
19,B44,-0.2
20,B45,0.275
21,B46,-1.27
22,B47,0.00266
23,B48,-0.689
24,B49,-0.55
25,B50,-0.0919
